System: CHO-K1 cells
Assay: Mammalian cell HPRT gene mutation assay
Settings: CHO-K1 cells, 10, 3 and 1 μM, after 6-thioguanine selection
Experimental: (§1) FIG. 3 is a chart showing the results of a mammalian cell HPRT gene mutation assay: CHO-K1 cells (hamster cell line) were treated with drugs at the concentration of 10, 3 and 1 μM. After 6-thioguanine selection, resistant cell colonies were counted as a measure of HPRT knockout mutations in host cells.
as §1, with “The results are shown in FIG. 3 and in the following table. FIG.” for “FIG.”

## [2H]C1(O)C(O)[C@H](n2ccc(NO)nc2=O)O[C@@H]1CO (stereo partly drawn) [D-NHC]
  reduction of the number of 6-thioguanine resistant colonies formed (HPRT knockout mutations) compared with NHC: about 50%

Source: patent publication US20240262857A1, “NOVEL UNIVERSAL ANTI-RNA VIRUS AGENTS” (priority 2021, published 2024)
